Experimental data taken from publication PMC4336329 (PLoS ONE, 2015).
The whole screen tested about 310,000 compounds, of which about 14,000 (4.5%) showed an effect of 50% or more. The effect is printed as a negative number. Some of the results follow.

Target: human ether-à-go-go-related gene (hERG) potassium channel (human, UniProt Q12809)
Experiment: primary screen, population patch clamp on CHO cells stably expressing hERG
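Note: peak tail current of the secondary pulse compared with the same well before compound.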

human ether-à-go-go-related gene (hERG) potassium channel, sequence (Q12809 whole entry, looked up): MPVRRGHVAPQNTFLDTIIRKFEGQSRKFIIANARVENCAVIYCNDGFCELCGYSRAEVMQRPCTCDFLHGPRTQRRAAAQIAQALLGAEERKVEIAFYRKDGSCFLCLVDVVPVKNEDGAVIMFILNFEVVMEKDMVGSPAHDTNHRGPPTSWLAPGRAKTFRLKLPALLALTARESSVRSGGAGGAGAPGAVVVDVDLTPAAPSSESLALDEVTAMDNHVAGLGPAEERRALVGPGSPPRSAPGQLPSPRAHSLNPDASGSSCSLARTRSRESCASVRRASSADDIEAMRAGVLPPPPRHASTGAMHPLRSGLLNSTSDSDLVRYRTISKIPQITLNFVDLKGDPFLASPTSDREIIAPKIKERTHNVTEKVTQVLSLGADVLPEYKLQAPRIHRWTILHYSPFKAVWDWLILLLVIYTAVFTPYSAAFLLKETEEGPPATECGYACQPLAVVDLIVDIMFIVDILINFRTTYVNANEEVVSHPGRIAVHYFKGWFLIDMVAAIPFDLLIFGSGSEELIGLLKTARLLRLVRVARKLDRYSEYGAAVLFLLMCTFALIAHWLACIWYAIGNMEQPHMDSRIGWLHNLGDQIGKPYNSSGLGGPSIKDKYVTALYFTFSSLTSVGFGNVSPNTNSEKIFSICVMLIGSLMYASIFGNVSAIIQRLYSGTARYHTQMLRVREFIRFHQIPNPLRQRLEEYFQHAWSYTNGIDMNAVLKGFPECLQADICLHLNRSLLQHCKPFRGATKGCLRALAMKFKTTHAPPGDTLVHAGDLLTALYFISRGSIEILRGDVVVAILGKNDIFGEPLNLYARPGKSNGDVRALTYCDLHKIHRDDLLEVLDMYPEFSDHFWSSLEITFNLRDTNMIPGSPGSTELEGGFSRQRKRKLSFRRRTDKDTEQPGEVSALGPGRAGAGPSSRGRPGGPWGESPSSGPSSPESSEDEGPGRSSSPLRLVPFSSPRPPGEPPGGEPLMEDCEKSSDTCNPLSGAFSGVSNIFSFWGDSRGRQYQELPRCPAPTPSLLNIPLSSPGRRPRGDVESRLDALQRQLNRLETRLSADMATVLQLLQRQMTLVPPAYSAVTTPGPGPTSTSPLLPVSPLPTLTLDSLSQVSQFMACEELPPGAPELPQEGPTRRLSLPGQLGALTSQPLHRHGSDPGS

| SMILES | hERG current change (%, negative = inhibition) at 10uM |
| --- | --- |
| CC(=O)c1cnc(N(C)C)s1 | 10% |
| O=C(Nc1ccc2nc3n(c(=O)c2c1)CCCCC3)C(=O)N1CCN(c2ccc(F)cc2)CC1 | 6.57% |
| CCCOc1ccc(N2C(=O)CC(NCCNc3ccc(S(=O)(=O)CC)cc3)C2=O)cc1 (centres unmarked) | -59.9% |
| COc1ccc(CCNC(=O)COC(=O)c2ccc(Br)o2)cc1OC | 5.06% |
| O=C(COc1c(Br)cc(Br)c2cccnc12)N1CCCCC1 | -23.9% |
| OC1CCCN(C(=S)NCc2ccccc2)C1 (centres unmarked) | 4.37% |
| Cc1ccc(S(=O)(=O)Cc2ccc([N+](=O)[O-])cc2)cc1 | 2.66% |
| Cc1[nH][nH]c(=O)c1C=NCc1cccs1 | 12.3% |
| O=C(COC(=O)CSCc1ccccc1)NCc1ccccc1 | 8.99% |
| CCOC(=O)Cn1c(CN2CCN(C(=O)c3ccco3)CC2)nc2c1c(=O)n(C)c(=O)n2C | -13.3% |
| Cc1cc(NC(=O)CSc2nc3ccccc3n2CC(=O)N2CCC(C)CC2)no1 | 1.55% |
| Cc1cccc(C)c1NC(=O)CSc1nnc(-c2ccncc2)n1Cc1ccco1 | -29.2% |
| CC(C)c1ccc(NC(=S)N2CCN(Cc3ccccc3)CC2)cc1 | 8.64% |
| COc1ccc(/C=N/NC(=O)c2cccnc2)cc1COc1ccc([N+](=O)[O-])c(C)c1 | -5.82% |
| COC(=O)Cn1c(C(O)c2ccccc2)nc2ccccc21 (centres unmarked) | 20.8% |
| CCCc1cc(=O)oc2c(C)c(OCC(=O)NCc3ccccn3)ccc12 | -8.82% |
| O=C(NC1CCCCCC1)C(=O)NC1CCCC1 | 20.8% |
| Nc1nnc(SCc2ccccc2F)s1 | -24.9% |
| COc1ccccc1CNC(=O)c1cc(-c2ccccc2C)n(CC2CC(c3cccc([N+](=O)[O-])c3)=NO2)n1 (centres unmarked) | 16.4% |
| O=C(CCC(=O)c1cccs1)Nc1ncccc1O | 17.5% |

| SMILES | hERG current change (%, negative = inhibition) at 10uM |
| --- | --- |
| O=C(CCc1ccccc1)N/N=C/c1cccc([N+](=O)[O-])c1 | -12.6% |
| COc1ccc(C(=O)CN2C(=O)c3ccccc3S2(=O)=O)cc1 | 9.67% |
| O=C1CSC(=S)N1Cc1cccnc1 | -2.25% |
| Cc1cc(NC(=O)c2ccc(Br)c([N+](=O)[O-])c2)no1 | -6.04% |
| Cc1cc([N+](=O)[O-])nn1CC(=O)N1CCOCC1 | -9.3% |
| CC(C)(C)c1nnc(N/N=C/c2ccc(O)cc2)n(N)c1=O | -3.42% |
| COc1ccc(C(=O)CCC(=O)NC2=NCCS2)cc1 | 12.3% |
| O=C(O)CCCC(=O)N1CCN(c2ncccn2)CC1 | 22.8% |
| CCn1c(C)c(C(=O)O)c2cc(OC)c3ccccc3c21 | 1.93% |
| COc1c(-c2ccc(O)c(O)c2)oc2cc(O)cc(O)c2c1=O | -4.09% |
| C=CCOc1cccc(C2C(C(=O)c3cc4ccccc4o3)=C(O)C(=O)N2c2cc(C)on2)c1 (centres unmarked) | 18.5% |
| CCCOC(=O)C1=C(C)NC2=C(C(=O)CCC2)C1c1cc(OC)ccc1OC (centres unmarked) | -2.76% |
| O=C(CCNC(=O)c1ccc(Br)cc1)Nc1cccc(S(=O)(=O)N2CCCCCC2)c1 | -34.1% |
| COc1ccc(F)cc1CN1CCN(C(=O)CCC(=O)Nc2nnc(C(C)C)s2)CC1 | -1.63% |
| CC1CCCCC12NC(=O)N(CC(=O)Nc1cccnc1Cl)C2=O (centres unmarked) | 8.05% |
| COc1ccc(CNC(=S)NCc2ccc(F)cc2)cc1 | -23.5% |
| CN(CC(=O)Nc1ccc(N2CCOCC2)cc1)C(=O)c1cn(-c2ccccc2)nc1-c1ccccc1 | 12.3% |
| Cc1cc(C(=O)Nc2ccccc2C(=O)O)c(C)o1 | 14.6% |
| CC(C)(C)C1CCc2c(sc3c2C(=O)NC(c2ccco2)N3)C1 (centres unmarked) | 2.55% |
| CCCCCCC(=O)Nc1ccc(Br)cn1 | -10.8% |

| SMILES | hERG current change (%, negative = inhibition) at 10uM |
| --- | --- |
| COc1ccc(CCNC(=O)C(=O)NCC2OCCN2S(=O)(=O)c2ccc(OC)c(OC)c2)cc1 (centres unmarked) | -19.8% |
| O=C(Nc1cccc2ncccc12)c1cc(Br)ccc1Cl | 1.08% |
| CC(=O)CSc1ncnc2sc3c(c12)CCCC3 | 5.89% |
| CCOP(=O)(CN(CC)C(=O)c1ccccc1Br)OCC | 2.97% |
| COc1ccc(Br)cc1CN1CCN(c2ncccn2)CC1 | -11.8% |
| NC(=O)CSc1nnc(-c2cccc(S(=O)(=O)N3CCCCC3)c2)o1 | 3.2% |
| COc1ccc(Cc2c[nH]c(=O)[nH]c2=O)cc1 | -1.29% |
| COc1ccc(NC(=O)CSc2nccn2Cc2ccc(F)cc2)c(OC)c1 | -21.1% |
| COc1ccc(OC)c(S(=O)(=O)N2CCC(C(=O)N3CCCC3)CC2)c1 | 7.71% |
| Cc1ccc(NC(=O)COc2ccc3c(c2)OCO3)c(C)c1 | 2.77% |
| CN(NC(=O)c1ccccc1F)c1nc(C(F)(F)F)nc2ccccc12 | -12.2% |
| CN1C[N+]([O-])=C(c2ccccc2)C1(C)C | 11.2% |
| CCOC(=O)c1sc(NC(=O)c2c(CC)noc2C)nc1C | -15.2% |
| NS(=O)(=O)c1ccc(CNC(=O)C2(c3ccc(Cl)cc3)CC2)cc1 | 8.76% |
| O=C(O)CSc1nnc2n(-c3ccccc3)c(=O)c3ccccc3n12 | -10.3% |
| O=C(Cc1nnc(NC(=O)Nc2ccc(F)cc2)s1)Nc1ccccc1 | 12.1% |
| O=C(OCC(F)(F)F)c1cccc(COc2ccc3ccccc3c2)c1 | 3.14% |
| c1ccc(Cc2noc(CN3CCCN(C4Cc5ccccc5C4)CC3)n2)cc1 | -80% |
| COC(=O)C[C@H]1c2cc(F)ccc2S(=O)(=O)N1c1ccc(N(C)C)cc1 | 14.4% |
